Measured values: PubChem BioAssay AID1963576 (National Center for Advancing Translational Sciences (NCATS), 2024)
The whole screen tested about 46,000 compounds, of which about 60 (0.1%) were called active. Inconclusive results (about 3%) are left out. Calls come from the whole dose curve; as a rule, active = well fitted inhibition curve with a large enough effect; inconclusive = small, poorly fitted or top-dose-only effect; inactive = no such curve, though single readings can be large or run the other way. This is one part of the list.

Assay: Primary qHTS assay for Inhibitors of ovarian cancer metastasis using an organotypic tumor microenvironment (TME) model.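 For activity change, negative = inhibition: plate controls were DMSO wells for no effect and tomatine positive control wells for full effect.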 Note: nearly all actives have a fitted effect of over 65% in size.
Details: SKOV3ip1-GFP adhesion/invasion on 3D omental model, fluorescence; series mostly up to 45.8 µM; activity change, negative = inhibition: at the top concentration
Method in brief: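 Adhesion/invasion was scored as fixed GFP-labeled SKOV3ip1 cell counts (488/509 nm), normalized to DMSO and tomatine controls. Cancer cells in serum-free medium, with four compound doses (0.36-46 umol/L), sat 2 hr at RT then 16 hr at 37 C on a 48 hr fibroblast/mesothelial/ECM culture.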

Activity change, negative = inhibition, inactive:
COc1cccc(N2C(=O)N(CC(=O)NCc3cccc(OC)c3OC)c3ccccc3S2(=O)=O)c1 8.83%, Cc1cc(=O)c2cc(C(=O)Nc3ccccc3)ccc2[nH]1 9.22%, Cc1ccc2cccc(NC(=O)c3ccc(-c4ccc(Br)cc4)o3)c2n1 11.8%, CCCNC(=O)c1cnc2sc(N3CCCCC3)nn2c1=O 3.95%, COc1ccc2oc(=O)c(C(=O)NCCc3c(C)[nH]c4ccc(Br)cc34)cc2c1 5.97%, O=C(CSc1nnc(CNC(=O)c2ccccc2)n1-c1cccc(Cl)c1)Nc1ccccc1F -11.8%, CCOC(=O)c1c(C)oc2nc(C)nc(N3CCN(c4ccccc4)CC3)c12 14.5%, COc1ccccc1N1CCN(C(=O)CCS(=O)(=O)c2cc(Br)cc3c2N(C(=O)C2CC2)CC3)CC1 -7.28%, O=C(Nc1ccc(F)cc1)c1cccn1-c1nnc(N2CCCCC2)s1 -4.96%, CCc1ccc(NC(=O)CSc2cn(CC(=O)N3CCCC3)c3ccccc23)cc1 -5.84%, COc1ccc(CNC(=O)c2ccc(Cn3c(=O)c4cccn4c4cccnc43)cc2)cc1OC 5.29%, O=C(Nc1cc(NC(=O)c2ccccc2Cl)ccc1Cl)c1ccccc1 -6.35%, O=C(NCc1cccc(F)c1)C1CCN(C(=O)c2sccc2-n2cccc2)CC1 -13.5%, Cc1ccc(C)c(-c2nc(Cn3c(=O)cc(-c4ccccc4)c4c(C)nn(C)c43)c(C)o2)c1 -3.62%, O=c1c2sc3ccccc3c2n(Cc2cccc(C(F)(F)F)c2)c(=O)n1Cc1ccco1 -3.08%, c1nc2nc(Nc3ccc(N4CCOCC4)cc3)nc(NC3CCCCC3)c2[nH]1 -3.69%, Cc1ccc(OCC(=O)Nc2ccc(S(=O)(=O)Nc3ncccn3)cc2)c(C(C)(C)C)c1 -4.7%, Cc1cccc(NC(=O)C2CCCN(S(=O)(=O)c3cccc4nonc34)C2)c1C (configuration not stated) -1.71%, CCN(C(=O)CCc1nc(-c2ccc(C)cc2)no1)c1cc(C)ccc1C -19.5%, CCCCN(C)CCCNC(=O)c1ccc2nc(N3CCCCC3)sc2c1 17.1%

outcome, inactive:
CCc1ccc(-n2c(-c3ccccc3)c(C)n3c4c(=O)n(C)c(=O)n(C)c4nc23)cc1, Cc1ccc(-c2csc(/C(C#N)=C/c3ccccc3Cl)n2)cc1, Cc1cn2c(=O)cc(COc3ccccc3NC(=O)c3ccccc3C)nc2s1, CCOCCCNC(=O)NC(CCC(C)C)c1c(-n2cccc2)sc2c1CCN(C)C2 (configuration not stated), CCOc1ccccc1CNC(=O)c1ccc2nc(Cc3ccc(OC)cc3)oc2c1, CC(C)(C)C(=O)CSc1nc2ccsc2c(=O)n1Cc1ccccc1F, CN1CCN(CCCNC(=O)c2cnn(-c3ccccc3)c2-n2cccc2)CC1
